For this assay, the target named is T1, Aβ(1-40) (Homo sapiens, UniProt P05067).
T1 construct: Soluble Aβ(1-40) peptide (Bachem, Torrance, Calif.); purchased Bachem, Torrance, Calif
The experiment in a line: BASST (Beta-Amyloid Self-Seeding, ThioflavinT), inhibitors of self-seeded amyloid fibril growth. The format is biochemical. As to conditions: 30 μM soluble Aβ(1-40), pH 7.5, 37° C., 3 to 5 hours, thioflavin T fluorescence. Here is the method:
BASST (Beta-Amyloid Self-Seeding, ThioflavinT)
An assay for inhibitors of self-seeded amyloid fibril growth
Assay Buffer—50 mM sodium phosphate, pH 7.5, 100 mM NaCl, 0.02% NaN3, 1 M urea (filter and store at 4° C.).
Soluble Aβ(1-40)—2.2 mg/mL in deionized H2O (store in aliquots at −20° C., keep on ice when thawed) will self-seed after 1 week storage. Typically, the solution should be stored until no lag phase is seen in the assay.
Final assay conditions: 30 μM soluble Aβ(1-40) in deionized water in assay buffer. Compound to be tested is dissolved in DMSO, typically 5-50 mM stock, such that the final concentration of DMSO is <1% v/v in the assay.
Assay: Reaction mixture for 50 assays (on ice) comprised of 1 μL of soluble Aβ(1-40)+13.5 μL assay buffer per assay. The following are the amounts of the components of the reaction mixture that result in each of the 50 assay wells.
1) Prepare the reaction mix above by mixing the components and storing on ice.
2) Pipet […] of reaction mixture into each of 50 wells of a polystyrene U-bottom 96-well microtiter plate (Corning 25881-96) on ice. […]
6) Remove the aluminum film and add 250 μL/well of 5 μM thioflavin T (ThT) [T-3516, Sigma-Aldrich] in 50 mM glycine-NaOH, pH 8.5. Read fluorescence on a plate reader (ex=440 nm/20 nm; em=485 nm/20 nm) within 5 minutes.

Molecules are shown by their SMILES. Some entries of the source have several records that differ or are many. This is not the full list of results. An entry can have further records. The values listed for one entry seem to repeat one measurement (runs, samples, wells or individuals).

As usually defined, the IC50 is the concentration at which inhibition is half-maximal. Lower therefore signals greater potency in that assay.

T1 sequence (P05067 672-711 limits assumed): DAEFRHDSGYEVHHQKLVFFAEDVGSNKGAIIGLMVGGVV

For `CCCCN(CCCC)c1ccc(/C=C2\SC(=S)N(CCS(=O)(=O)NC(=O)c3ccc(F)cc3)C2=O)cc1` [Example 26, (Z) 2-[5-(4-Dibutylamino-benzytidene)-4-oxo-2-thioxo-thiazolidin-3-yl]-ethanesulfonic acid 4-fluoro-benzoylamide], the IC50 was 500 nM and 10 µM [one cell].

The record behind these values is patent publication US20040197268A1, “Method of imaging amyloid deposits using substituted rhodanine derivatives” (priority 1999, published 2004).
